Assay results taken from paper PMC4336329 (PLoS ONE, 2015).
Screen size: about 310,000 compounds; about 14,000 (4.5%) showed an effect of 50% or more. Effects have a minus sign here. The list shows a part of the results.

Target: human ether-à-go-go-related gene (hERG) potassium channel (human, UniProt Q12809)
Assay: primary screen, population patch clamp on CHO cells stably expressing hERG
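Note: peak tail current of the secondary pulse compared with the same well before compound.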

Sequence of human ether-à-go-go-related gene (hERG) potassium channel (Q12809 whole entry, looked up): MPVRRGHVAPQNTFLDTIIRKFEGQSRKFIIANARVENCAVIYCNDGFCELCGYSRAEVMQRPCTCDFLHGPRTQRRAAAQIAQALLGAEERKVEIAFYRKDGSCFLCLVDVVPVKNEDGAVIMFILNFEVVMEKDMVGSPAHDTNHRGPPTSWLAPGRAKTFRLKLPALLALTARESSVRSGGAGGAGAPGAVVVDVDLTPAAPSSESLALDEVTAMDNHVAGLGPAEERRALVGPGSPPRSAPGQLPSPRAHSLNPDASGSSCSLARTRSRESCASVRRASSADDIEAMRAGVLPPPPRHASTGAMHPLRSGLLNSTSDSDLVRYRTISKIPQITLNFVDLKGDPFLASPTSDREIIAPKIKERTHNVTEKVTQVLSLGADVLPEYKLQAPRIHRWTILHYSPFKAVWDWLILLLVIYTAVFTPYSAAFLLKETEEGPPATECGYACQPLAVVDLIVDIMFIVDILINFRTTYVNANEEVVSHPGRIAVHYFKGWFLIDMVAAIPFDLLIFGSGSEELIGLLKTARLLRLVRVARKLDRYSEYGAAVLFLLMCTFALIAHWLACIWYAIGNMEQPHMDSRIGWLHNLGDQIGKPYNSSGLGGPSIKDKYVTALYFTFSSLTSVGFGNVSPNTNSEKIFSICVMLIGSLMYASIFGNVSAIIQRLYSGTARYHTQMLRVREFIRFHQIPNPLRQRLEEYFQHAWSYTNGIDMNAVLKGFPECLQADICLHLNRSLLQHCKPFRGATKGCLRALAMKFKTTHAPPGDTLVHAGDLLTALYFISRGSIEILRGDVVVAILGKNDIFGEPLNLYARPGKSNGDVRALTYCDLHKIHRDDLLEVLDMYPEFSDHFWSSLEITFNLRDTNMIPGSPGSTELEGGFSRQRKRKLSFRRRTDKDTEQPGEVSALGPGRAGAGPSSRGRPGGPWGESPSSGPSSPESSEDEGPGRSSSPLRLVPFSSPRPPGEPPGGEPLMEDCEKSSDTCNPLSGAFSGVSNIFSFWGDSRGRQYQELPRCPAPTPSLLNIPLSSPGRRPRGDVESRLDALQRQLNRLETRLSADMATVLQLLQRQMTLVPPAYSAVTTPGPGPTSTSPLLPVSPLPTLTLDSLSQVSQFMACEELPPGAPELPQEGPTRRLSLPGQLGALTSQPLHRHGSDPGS

Row | SMILES | hERG current change (%, negative = inhibition) at 10uM [%]
1 | Cc1nc2c(ccc3nc(NC(=O)c4ccc(S(=O)(=O)N(C)C)cc4)sc32)s1 | 15.2
2 | COc1ccc(Cl)cc1NS(=O)(=O)c1c(C)[nH]c(=O)[nH]c1=O | -6.36
3 | CC1(c2ccccc2Cl)NC(=O)N(CC(=O)c2ccc3c(c2)OCO3)C1=O (centres unmarked) | -22.9
4 | O=C(Nc1ccc(-c2nc3ncccc3o2)cc1)c1ccco1 | 15.8
5 | Cc1ccc(N(C(C)C(=O)N2CCC(C)CC2)S(C)(=O)=O)cc1C (centres unmarked) | -14.7
6 | CCN1C=C(C(=O)OC)C(c2cccc(C)c2)C(C(=O)OC)=C1 | -2.25
7 | CC(C)CCN(CC(=O)NC(C)(C)C)C(=O)C(=O)Nc1ccc2c(c1)OCCO2 | -6.24
8 | COc1cc(C2SCC(=O)N2CCc2ccc(OC)c(OC)c2)ccc1O (centres unmarked) | 7.52
9 | Cc1ccc(S(=O)(=O)N2CCOCC2)cc1C(=O)OCC(=O)NC1CCCC(C)C1C (centres unmarked) | -15.9
10 | CCOc1ccc(NC(=O)N(C2CCCCC2)C(C)c2ccncc2)cc1 (centres unmarked) | -27.1
11 | COS(=O)(=O)[O-].C[N+]1(C)CCC(=C(c2ccccc2)c2ccccc2)CC1 | -71
12 | COc1ccc(N2CC(O)=C(c3n(C)c4ccccc4[n+]3C)C2=N)cc1.[Cl-] | -17.4
13 | O=C(c1ccc(Br)o1)N1CCN=C1SCc1cccc(F)c1 | 1.33
14 | Cc1ccc(S(=O)(=O)N2CCC(C(=O)N3CCCC(C(F)(F)F)C3)CC2)cc1C (centres unmarked) | -10.2
15 | Cc1ccc2c(c1)NC(=O)C(CC(=O)Nc1ccc(Br)c(C)c1)O2 (centres unmarked) | 13.2
16 | COc1ccc(C(OCC(O)CN2CCC(O)CC2)c2ccc(OC)cc2)cc1 (centres unmarked) | -48
17 | CN(C(=O)COC(=O)c1ccc2c(=O)n3c(nc2c1)CCC3)c1ccccc1 | 0.681
18 | CC1=C(C(=O)OCc2ccccc2)C(c2ccccc2)NC(=O)N1 (centres unmarked) | 13.7
19 | CCc1n(CC(O)COCC2CC=CCC2)c2ccccc2[n+]1C.[I-] (centres unmarked) | -35.3
20 | CC(C)NC(=O)CSc1nnc(-c2ccc(S(=O)(=O)N3CCCC3)cc2)n1CC1CCCO1 (centres unmarked) | 4.22
21 | COc1ccccc1CNC(=O)CN(Cc1ccc(Cl)cc1)S(C)(=O)=O | -14.7
22 | CCc1ccc(C(=O)Nc2cc3c(cc2Cl)OCCCO3)cc1 | 23.5
23 | COc1cc(NC(=O)Cc2ccccc2)ccc1NC(=O)c1ccccc1 | -2.16
